Seven molecules from publication PMC4985162 can be followed below.

By UniProt entry, the sequences of proteins in these tests, tags left out.
UniProt P01123: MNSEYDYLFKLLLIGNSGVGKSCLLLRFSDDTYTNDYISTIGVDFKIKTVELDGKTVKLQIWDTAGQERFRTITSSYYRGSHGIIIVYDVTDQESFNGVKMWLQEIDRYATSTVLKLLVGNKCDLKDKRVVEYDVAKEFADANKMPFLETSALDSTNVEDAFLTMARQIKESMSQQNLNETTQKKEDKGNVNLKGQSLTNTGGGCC
UniProt Q12446: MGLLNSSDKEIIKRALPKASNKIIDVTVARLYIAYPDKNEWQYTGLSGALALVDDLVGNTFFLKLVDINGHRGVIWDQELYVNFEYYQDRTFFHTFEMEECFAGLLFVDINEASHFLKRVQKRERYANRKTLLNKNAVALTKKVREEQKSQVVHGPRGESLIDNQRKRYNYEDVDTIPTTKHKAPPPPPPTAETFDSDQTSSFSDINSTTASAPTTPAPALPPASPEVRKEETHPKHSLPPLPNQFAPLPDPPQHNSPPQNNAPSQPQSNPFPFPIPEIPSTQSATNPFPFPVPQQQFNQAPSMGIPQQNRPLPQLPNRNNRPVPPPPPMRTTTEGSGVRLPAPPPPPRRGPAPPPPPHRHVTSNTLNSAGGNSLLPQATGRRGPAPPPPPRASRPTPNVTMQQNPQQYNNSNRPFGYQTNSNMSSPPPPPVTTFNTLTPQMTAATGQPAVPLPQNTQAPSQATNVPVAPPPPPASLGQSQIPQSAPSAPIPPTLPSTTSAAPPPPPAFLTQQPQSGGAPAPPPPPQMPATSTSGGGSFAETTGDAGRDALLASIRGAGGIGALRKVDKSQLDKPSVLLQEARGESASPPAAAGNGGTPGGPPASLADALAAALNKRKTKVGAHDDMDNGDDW

No constants are given. Whether binding was seen depends on the method and setting. Binding seen in cells or lysates may run through a third protein. Some entries that bind do so weakly or less than the wild type. For some of these results: Sequences can lack the tags named with a protein.

For assay [1], the target named is T1, YFP^N-Sec4p (S. cerevisiae) (UniProt P07560).
T1 sequence: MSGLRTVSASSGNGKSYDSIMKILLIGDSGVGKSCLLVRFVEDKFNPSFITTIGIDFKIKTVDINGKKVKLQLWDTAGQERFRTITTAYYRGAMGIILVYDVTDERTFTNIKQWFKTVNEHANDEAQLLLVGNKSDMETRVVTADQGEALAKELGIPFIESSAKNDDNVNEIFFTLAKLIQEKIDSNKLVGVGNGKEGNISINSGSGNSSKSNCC
Kind of assay: split reporter; BiFC: integrated YFP^N and YFP^C (Venus) fusions, haploids mated, widefield fluorescence microscopy of living diploid yeast cells.

Assay [2] deals with T1, YFP^N-Sec4p (S. cerevisiae). Kind of assay: split reporter; BiFC competition: overnight P^GAL-LAS17 induction or 6 h P^GAL-SEC4 induction with galactose, compared to glucose medium; number of BiFC particles in living yeast cells.
For assay [3], the target named is T2, Sla1p-YFP^C (S. cerevisiae) (UniProt P32790).
T2 sequence: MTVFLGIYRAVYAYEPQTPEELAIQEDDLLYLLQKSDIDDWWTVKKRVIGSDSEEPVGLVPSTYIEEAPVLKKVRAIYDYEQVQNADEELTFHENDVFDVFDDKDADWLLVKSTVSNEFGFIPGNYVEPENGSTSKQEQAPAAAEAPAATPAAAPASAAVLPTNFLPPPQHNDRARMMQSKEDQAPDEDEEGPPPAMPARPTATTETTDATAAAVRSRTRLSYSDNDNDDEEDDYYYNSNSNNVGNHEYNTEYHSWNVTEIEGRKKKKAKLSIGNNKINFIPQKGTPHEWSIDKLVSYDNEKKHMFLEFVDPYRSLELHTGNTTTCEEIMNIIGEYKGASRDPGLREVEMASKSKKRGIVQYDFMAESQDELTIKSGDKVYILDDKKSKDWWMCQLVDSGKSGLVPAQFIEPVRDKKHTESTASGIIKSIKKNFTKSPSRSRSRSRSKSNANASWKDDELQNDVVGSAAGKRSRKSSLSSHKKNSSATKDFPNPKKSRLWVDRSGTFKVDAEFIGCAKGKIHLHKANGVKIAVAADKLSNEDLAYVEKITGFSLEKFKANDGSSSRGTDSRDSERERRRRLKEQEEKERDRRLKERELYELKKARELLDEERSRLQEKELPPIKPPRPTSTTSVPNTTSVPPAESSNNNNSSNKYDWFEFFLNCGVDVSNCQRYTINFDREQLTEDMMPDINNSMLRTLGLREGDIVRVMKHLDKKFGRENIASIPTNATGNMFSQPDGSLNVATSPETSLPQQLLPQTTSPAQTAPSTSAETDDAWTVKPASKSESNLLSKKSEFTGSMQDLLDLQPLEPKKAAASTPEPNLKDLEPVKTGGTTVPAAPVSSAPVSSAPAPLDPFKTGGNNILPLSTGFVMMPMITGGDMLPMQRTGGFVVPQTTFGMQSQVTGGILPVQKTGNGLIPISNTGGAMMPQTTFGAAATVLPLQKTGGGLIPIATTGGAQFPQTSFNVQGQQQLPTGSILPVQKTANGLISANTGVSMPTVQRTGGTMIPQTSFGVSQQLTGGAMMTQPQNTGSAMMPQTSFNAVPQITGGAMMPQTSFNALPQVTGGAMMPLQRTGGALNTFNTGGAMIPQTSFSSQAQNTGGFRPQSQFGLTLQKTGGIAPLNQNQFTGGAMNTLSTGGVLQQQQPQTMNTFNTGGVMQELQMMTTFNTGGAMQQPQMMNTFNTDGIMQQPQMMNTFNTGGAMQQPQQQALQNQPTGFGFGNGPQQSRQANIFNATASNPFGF
As to the kind of experiment: split reporter; BiFC: integrated YFP^N and YFP^C (Venus) fusions, haploids mated, widefield fluorescence microscopy of living diploid yeast cells.

The target of assay [4] is T2, Sla1p-YFP^C (S. cerevisiae). As to the kind of experiment: split reporter; BiFC competition: overnight P^GAL-LAS17 induction or 6 h P^GAL-SEC4 induction with galactose, compared to glucose medium; number of BiFC particles in living yeast cells.
The target of assay [5] is T3, glutathione S-transferase (GST)-Sec4p (S. cerevisiae) (UniProt P07560).
T3 sequence: T1 sequence
Kind of assay: pull-down; 1 μg GST fusion immobilized on magnetic glutathione beads, preloaded with 1.5 mM GDP; 10 μl in vitro translated ^35S-labeled protein added, 1 h at 23°C; 150 mM Tris pH 7.5, 1.5 mM MgCl2, 250 mM NaCl, 0.5% Triton X-100; SDS-PAGE and autoradiography; only the target purified.

The target of assay [6] is GST-Ypt1p (S. cerevisiae) (UniProt P01123). The description is as above.
Assay [7] has as its target T3, glutathione S-transferase (GST)-Sec4p (S. cerevisiae). As to the kind of experiment: pull-down; 1 μg GST fusion immobilized on magnetic glutathione beads, preloaded with 1.5 mM GTPγS; 10 μl in vitro translated ^35S-labeled protein added, 1 h at 23°C; 150 mM Tris pH 7.5, 1.5 mM MgCl2, 250 mM NaCl, 0.5% Triton X-100; SDS-PAGE and autoradiography; only the target purified.

Assay [8] addresses GST-Ypt1p (S. cerevisiae) (UniProt P01123). The description is as above.
Assay [9] addresses Las17p-YFP^C (S. cerevisiae) (UniProt Q12446). Kind of assay: split reporter; BiFC competition: overnight P^GAL-LAS17 induction or 6 h P^GAL-SEC4 induction with galactose, compared to glucose medium; number of BiFC particles in living yeast cells.
The target in assay [10] is T3, glutathione S-transferase (GST)-Sec4p (S. cerevisiae). Kind of assay: pull-down; bacterially expressed GST-Sec4p and in vitro translated Sla1p, 'using the same binding conditions'; nucleotide not stated; only the target purified.

For “Las17p-YFP^C (from UniProt Q12446 1-633)”, the binding entry in assay [1] and in assay [2] was “binds” throughout.

Consider “Las17p-YFP^N (from UniProt Q12446 1-633)”, for which the binding result in assay [3] and in [4] was “binds” each time. “^35[S]-labeled Las17p-Myc (from UniProt Q12446 1-633)”: the binding entry is recorded as “binds” in [5], “no binding” in assay [6], “binds” in assay [7] and “no binding” in [8]. For the molecule “wild-type Las17p (from UniProt Q12446 1-633)”, the binding entry in [4] and in assay [2] was “binds” each time.

B1: wild-type Sec4p (protein, UniProt P07560 1-215)
chain: T1 sequence
As to B1, the binding entry in assay [9] is reported as “binds”.

B2: in vitro translated Sla1p (protein, UniProt P32790 1-1244)
chain: T2 sequence
With B2, the binding result in [10] is “no binding”.

B3: Abp1p-YFP^C (protein, UniProt P15891 1-592)
chain: MALEPIDYTTHSREIDAEYLKIVRGSDPDTTWLIISPNAKKEYEPESTGSSFHDFLQLFDETKVQYGLARVSPPGSDVEKIIIIGWCPDSAPLKTRASFAANFAAVANNLFKGYHVQVTARDEDDLDENELLMKISNAAGARYSIQTSSKQQGKASTPPVKKSFTPSKSPAPVSKKEPVKTPSPAPAAKISSRVNDNNDDDDWNEPELKERDFDQAPLKPNQSSYKPIGKIDLQKVIAEEKAKEDPRLVQKPTAAGSKIDPSSDIANLKNESKLKRDSEFNSFLGTTKPPSMTESSLKNDDDKVIKGFRNEKSPAQLWAERKAKQNSGNAETKAEAPKPEVPEDEPEGEPDVKDLKSKFEGLAASEKEEEEMENKFAPPPKKSEPTIISPKPFSKPQEPVKAEEAEQPKTDYKKIGNPLPGMHIEADNEEEPEENDDDWDDDEDEAAQPPLPSRNVASGAPVQKEEPEQEEIAPSLPSRNSIPAPKQEEAPEQAPEEEIEEEAEEAAPQLPSRSSAAPPPPPRRATPEKKPKENPWATAEYDYDAAEDNELTFVENDKIINIEFVDDDWWLGELEKDGSKGLFPSNYVSLGN
On to B3, for which the binding entry in assay [1] is “no binding”.
